± gives the standard deviation of the averaged measurements. Over roughly 33,000 sequences, “E-score (dimensionless, -0.5 to 0.5)” has its median near -0.046; the highest 2% begin near 0.36. The list shows a part of the results.

The experiment deals with T1, SpTbr T-box DNA-binding domain (GST fusion).
T1 sequence: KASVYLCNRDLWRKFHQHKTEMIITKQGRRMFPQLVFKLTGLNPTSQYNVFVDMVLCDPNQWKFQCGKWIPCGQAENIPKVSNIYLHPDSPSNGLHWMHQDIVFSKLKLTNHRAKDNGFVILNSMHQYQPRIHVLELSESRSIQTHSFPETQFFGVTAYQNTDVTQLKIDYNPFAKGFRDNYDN
The experiment in a line: PBM E-score of 8-mer (E-score (dimensionless, -0.5 to 0.5)); Tbr is Tbrain of the sea star Patiria miniata (Pm) or the sea urchin Strongylocentrotus purpuratus (Sp); higher = stronger binding preference; most listed sequences are background and not binding sites. Particulars: the construct has about 5 more residues each side. In a few lines: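 Each ungapped 8-mer received an enrichment E-score from the Universal PBM Analysis Suite, averaged over duplicate arrays. The proteins were Tbr T-box DNA-binding domains, covering the whole T-box plus about five flanking residues, fused to GST and expressed in BL21 E. coli at 20 °C before glutathione affinity purification. Universal Agilent oligonucleotide arrays were made double-stranded by primer extension and incubated with 200 nM protein in PBS (pH 7.5). The arrays were then scanned and quantified, and every 8-mer was scored from probe intensities.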
In the case of AAGACAGT, the “PBM E-score of 8-mer” value worked out at 0.0283 ± 0.012.

In the case of AGTAGAAG, the “PBM E-score of 8-mer” value turned out to be 0.0206 ± 0.039.

ACAGGGGC: the “PBM E-score of 8-mer” value is -0.0909 ± 0.019. Under CAGTGGTA stands -0.0561 ± 0.052; under CCCCGAAC, -0.132 ± 0.03; under GCACCCAC, 0.302 ± 0.034. For AATCTGGG, the “PBM E-score of 8-mer” value was -0.0125 ± 0.062. Regarding ATAAGCGG, the “PBM E-score of 8-mer” value was -0.0929 ± 0.023. Under AAGGGGAA stands -0.201 ± 0.055.

AGCTAGGA: the “PBM E-score of 8-mer” value was -0.115 ± 0.016. Then AACAGACT, with -0.233 ± 0.071. As to ACTAGGAT, the “PBM E-score of 8-mer” value is -0.2518 ± 0.0023. For the sequence CCCGTACC, the “PBM E-score of 8-mer” value is 0.0296 ± 0.038. For the sequence AAACTGAG, the “PBM E-score of 8-mer” value was -0.1 ± 0.018. Then AACGATCA, with -0.0563 ± 0.006. CAGTTAGC: the “PBM E-score of 8-mer” value was 0.151 ± 0.047. For GTGGCCGA, the “PBM E-score of 8-mer” value came to 0.0547 ± 0.071. Then AGCAGGAC, with -0.0117 ± 0.031; and GTGGATTA, with -0.0496 ± 0.019. Under CACTCAGA stands 0.0772 ± 0.046. Then AGTATTTC, with -0.217 ± 0.0098; and GATTCTCC, with -0.121 ± 0.055. Turning to TATGTGGA, the “PBM E-score of 8-mer” value came out at 0.0114 ± 0.06.

Take ATGACCGG: the “PBM E-score of 8-mer” value came out at 0.0387 ± 0.039.

As for CCCCTGAC, the “PBM E-score of 8-mer” value is -0.122 ± 0.11. For AAACTCGT, the “PBM E-score of 8-mer” value stood at 0.0488 ± 0.091. Turning to CCCTTCAA, the “PBM E-score of 8-mer” value is -0.0939 ± 0.065. Then ACTCGAGC, with -0.333 ± 0.077; and TAGGAGAA, with -0.223 ± 0.026. Under AAATCGGT stands -0.118 ± 0.0057. Under AACGTTTC stands -0.191 ± 0.019; under CAGTAAAG, -0.119 ± 0.08.

Regarding GGACGACA, the “PBM E-score of 8-mer” value is 0.144 ± 0.043. Under CGCAGAAA stands -0.081 ± 0.02. With GGTAGTGA, the “PBM E-score of 8-mer” value stood at 0.213 ± 0.071. As for ATTGGCCC, the “PBM E-score of 8-mer” value was -0.165 ± 0.022.

Turning to CCGCGGAC, the “PBM E-score of 8-mer” value was 0.0516 ± 0.039.

In the case of AACTTAAA, the “PBM E-score of 8-mer” value was -0.088 ± 0.039. Under ATACTACA stands -0.0286 ± 0.013; under CACCAGCG, 0.2487 ± 0.0019. Turning to AATGAGAG, the “PBM E-score of 8-mer” value is -0.293 ± 0.063. Turning to AACACTGT, the “PBM E-score of 8-mer” value was found to be 0.3297 ± 0.0029.

As to GACGGAAA, the “PBM E-score of 8-mer” value was -0.0594 ± 0.066. Then CTTGCCCA, with -0.196 ± 0.069; and AGTCAGTG, with 0.0623 ± 0.0082. Then AGGAAACC, with -0.0492 ± 0.041.

As to ACACGGGG, the “PBM E-score of 8-mer” value is -0.0474 ± 0.022. Under AGCAGCCT stands -0.0448 ± 0.072; under AAATTTCG, -0.129 ± 0.096.

For CCGTAAAA, the “PBM E-score of 8-mer” value was -0.098 ± 0.007.

As to GGGTAAAA, the “PBM E-score of 8-mer” value was -0.318 ± 0.058. Then TCGTCTCA, with 0.0855 ± 0.066; and GCATTCGA, with -0.109 ± 0.0095; and CCCCCGCG, with -0.138 ± 0.085.

The values are drawn from the supplement of paper PMC4166925.
